Measurements reported in patent US20060030524A1, “Treatment of systemic lupus erythematosus by down-regulating the autoimmune response to autoantigens” (Yeda Research and Development Co. Ltd., priority 1998, published 2006).

Test system: native, histone-free DNA of Crithidia luciliae
Assay: Crithidia luciliae assay of sera of Ab1-immunized mice
Type: in vivo
Conditions: sera of C57BL/6 mice immunized to the Ab1
Method: Slides with Crithidia were purchased from Immco (Buffalo, N.Y.) and incubated with the test sera according to the manufacturer's protocol.
Test sera were then examined for binding to DNA using the Crithidia luciliae assay, which detects antibodies—to native, histone-free DNA exposed at the base of the Crithidia flagellum. Both BALB/c and C57BL/6 mice immunized to […] or PAb-248 were negative for anti-DNA antibodies in the Crithidia assay, as were C57BL/6 mice immunized to PAb-421. […] The finding of positive reactivity in the Crithidia assay correlates with the clinical disease seen in the BALB/c mice. The Crithidia luciliae assay is used clinically for its diagnostic specificity for lupus in humans (Aarden et al, 1975).

B1: PAb-421: monoclonal antibody (Ab1) against the C-terminal DNA-binding domain of murine p53; VH SEQ ID NO:2, VL SEQ ID NO:3 (antibody, listed as Mus sp., V domains shown)
VH: QVKLQESGAELVRSGASVKLSCTASGFNIKDYYMHWVKQRPEQGLEWIGWIDPENGDTEYAPKFQGKATMTADTSSNTAYLQLSSLASEDTAVYYCNFYGDALDYWGQGTTVTVSS
VL: DIQLTQSPLTLSVTIGQPASISCKSSQSLLDSDGKTYLNWLLQRPGQSPKRLIYLVSKLDSGVPDRFTGSGSGTDFTLKINRVEAEDLGVYYCWQGTHSPLTFGAGTKLK
modifications: BINDING (26)..(35) Complementary Determining Region; BINDING (24)..(39) Complementary Determining Region
- anti-DNA antibodies in the Crithidia assay: negative
